Source: PubChem BioAssay AID1347165 (National Center for Advancing Translational Sciences (NCATS), 2019)
Out of some 220,000 compounds screened, about 5,700 (2.6%) were called active. The inconclusive results got no clear call from the source; some entries with a clear call stand among them for comparison. Calls follow the shape of the dose curve; as a rule, active = well fitted inhibition curve with a large enough effect; inconclusive = small, poorly fitted or top-dose-only effect; inactive = no such curve, though single readings can be large or run the other way. Potencies of inconclusive entries are doubtful fits and often do not repeat.
Also: nearly all actives have a fitted effect of over 70% in size.
For activity change, negative = inhibition in this document: 0% is about no effect.
Potency is read from the fitted curve at half-maximal effect; tags tell the direction and shape of the fitted curve.

These compounds were tested against Lysine-specific demethylase 5B (Homo sapiens) (UniProt Q9UGL1) (assay: Primary screen for KDM5B Histone Demethylases FDH-coupled qHTS). Settings: FDH-coupled NADH fluorescence (FDH is formaldehyde dehydrogenase); activity change, negative = inhibition: at 57.7 µM (top of the series) unless noted.
Sequence of UniProt Q9UGL1 (Q9UGL1 whole entry, looked up): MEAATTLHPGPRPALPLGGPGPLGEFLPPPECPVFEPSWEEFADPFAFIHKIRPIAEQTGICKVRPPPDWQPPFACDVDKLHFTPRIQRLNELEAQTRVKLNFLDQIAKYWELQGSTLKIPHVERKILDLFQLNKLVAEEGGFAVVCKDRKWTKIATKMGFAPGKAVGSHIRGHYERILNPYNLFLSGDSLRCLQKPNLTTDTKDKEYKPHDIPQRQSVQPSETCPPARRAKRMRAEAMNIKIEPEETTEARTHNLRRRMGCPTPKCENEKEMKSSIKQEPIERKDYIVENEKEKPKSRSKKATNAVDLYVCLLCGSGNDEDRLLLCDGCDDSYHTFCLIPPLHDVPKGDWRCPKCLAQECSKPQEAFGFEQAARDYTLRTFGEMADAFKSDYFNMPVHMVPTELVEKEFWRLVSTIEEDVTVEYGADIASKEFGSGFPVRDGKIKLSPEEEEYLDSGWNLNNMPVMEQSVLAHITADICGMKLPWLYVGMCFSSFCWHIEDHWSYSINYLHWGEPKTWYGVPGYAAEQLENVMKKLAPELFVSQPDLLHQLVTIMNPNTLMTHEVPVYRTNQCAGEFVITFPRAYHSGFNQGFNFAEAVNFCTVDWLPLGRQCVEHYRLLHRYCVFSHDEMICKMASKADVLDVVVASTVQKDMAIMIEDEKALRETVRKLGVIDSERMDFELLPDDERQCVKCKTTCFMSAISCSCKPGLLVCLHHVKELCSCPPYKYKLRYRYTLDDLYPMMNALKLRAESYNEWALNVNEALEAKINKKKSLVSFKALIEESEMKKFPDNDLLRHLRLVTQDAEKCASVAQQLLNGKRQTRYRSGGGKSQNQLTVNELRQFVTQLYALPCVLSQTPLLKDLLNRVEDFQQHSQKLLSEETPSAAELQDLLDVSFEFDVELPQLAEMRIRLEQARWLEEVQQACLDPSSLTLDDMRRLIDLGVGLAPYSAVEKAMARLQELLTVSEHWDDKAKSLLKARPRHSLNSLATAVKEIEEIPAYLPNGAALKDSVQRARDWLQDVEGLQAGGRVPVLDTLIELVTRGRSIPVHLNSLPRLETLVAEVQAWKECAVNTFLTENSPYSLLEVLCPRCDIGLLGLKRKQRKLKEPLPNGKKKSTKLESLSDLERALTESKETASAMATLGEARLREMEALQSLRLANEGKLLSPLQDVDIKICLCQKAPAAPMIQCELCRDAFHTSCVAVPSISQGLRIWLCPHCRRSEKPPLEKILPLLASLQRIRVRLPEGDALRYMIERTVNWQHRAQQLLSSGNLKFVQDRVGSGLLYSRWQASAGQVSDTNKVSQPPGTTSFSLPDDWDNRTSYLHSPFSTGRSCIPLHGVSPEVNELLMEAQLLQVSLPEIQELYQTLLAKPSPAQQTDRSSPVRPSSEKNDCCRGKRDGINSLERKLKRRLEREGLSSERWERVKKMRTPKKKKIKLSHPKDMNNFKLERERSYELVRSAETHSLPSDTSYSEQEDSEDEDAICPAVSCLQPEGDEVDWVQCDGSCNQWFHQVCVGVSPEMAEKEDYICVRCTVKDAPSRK
How it was run: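 qHTS format, multiple compound concentrations. Buffer 50 mM HEPES pH 7.5/0.01% Tween-20; 200 nM KDM5BΔAP final; 10 min compound preincubation; substrate-mix levels 12.5 µM peptide, 25 µM α-KG, 0.25 mM NAD⁺; 30 min RT; ΔRFU.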
In the case of `COc1ccc2cc(-c3[nH]ncc3CN3CCCC3c3nonc3C)ccc2c1` (stereo unspecified), the Potency is reported as “inactive”.
In the case of `Cc1c(CCC(=O)Nc2nc3ccccc3[nH]2)c(=O)oc2cc(O)ccc12`, the Potency is reported as inconclusive: 25.1 µM [inhibitor, partial curve, poor fit].
With `Cc1cccc(Cl)c1NC(=O)Cn1ccn2nc(-c3ccccc3)c(CO)c2c1=O` the Potency was inconclusive: 17.8 µM [inhibitor, single point].
In the case of `COc1ccc(C(=O)/C=C/Nc2cc(C)ccn2)cc1`, the Potency is reported as inconclusive: 39.8 µM [inhibitor, single point].
For `CCOc1ccc(NC(=O)Cn2c(Nc3cc(C)cc(C)c3)nc(C)cc2=O)cc1`, the Potency was “inactive”.
With `CCCn1c(NC(=O)c2oc3ccccc3c2COCC)nc2ccccc21` the Potency was inconclusive: 12.6 µM [inhibitor, partial curve, poor fit].
For `CCOc1ccc(C(=O)NCc2ccc3c(c2)CCN3C(=O)c2ccc(C)cc2)cc1OCC`, the Potency was inconclusive: 20 µM [inhibitor, partial curve, poor fit].
With `COc1ccc(Nc2cc(C(=O)NCc3ccccc3)c3ccccc3n2)cc1OC` the Potency was inconclusive: 15.8 µM [inhibitor, partial curve, poor fit].
In the case of `Cc1ccn2c(Nc3ccc4c(c3)OCCO4)c(-c3ccc(C)s3)nc2c1`, the Potency is reported as inconclusive: 25.1 µM [inhibitor, partial curve, poor fit].
`CC(C)c1cccc(NC(=O)Cn2cccc2-c2nc(-c3ccc4c(c3)OCO4)no2)c1` was tested, and the Potency was inconclusive: 28.2 µM [inhibitor, partial curve, poor fit].
`O=C(Nc1ccc2nnc(-c3ccc(C(=O)N4CCCCC4)cc3)n2c1)C1CCC1` was tested, and the Potency was active: 20 µM.
For `COc1ccccc1Cc1nc2ccccc2nc1SCC(=O)N1CCC(C)CC1`, the Potency was inconclusive: 35.5 µM [inhibitor, single point].
With `O=c1oc2ccc3ccccc3c2cc1-c1ccccc1` the Potency was inconclusive: 15.8 µM [inhibitor, partial curve, poor fit].
`CCOC(=O)c1cc(-c2ccccc2)n(CCCC(=O)Nc2cc(C)ccc2OC)c1C` was tested, and the Potency was inconclusive: 31.6 µM [inhibitor, single point].
With `CN(C)C[C@@H]1CN(c2ccncn2)C[C@H]1NC(=O)c1ccc(F)cc1Cl` the Potency was “inactive”.
With `CO[C@@]1(C)C[C@@H](O)C12CCN(C(=O)CN1CCc3ccccc3C1)CC2` the Potency was inconclusive: 15.8 µM [inhibitor, partial curve].
In the case of `CNc1ccc(OC2CCN(C(=O)COC)CC2)nc1`, the Potency is reported as active: 28.2 µM.
`CC(C)CCN(Cc1ccco1)C(=O)Cn1ncc2c([nH]c3ccccc32)c1=O` was tested, and the Potency was inconclusive: 17.8 µM [inhibitor, partial curve, poor fit].
In the case of `O=c1c(N2CCc3ccccc3C2)csc2ccc(Br)cc12`, the Potency is reported as inconclusive: 35.5 µM [inhibitor, partial curve, poor fit].
`COc1cc(-c2nnc(SCC(=O)Oc3ccccc3Cl)o2)cc(OC)c1OC` was tested, and the Potency was inconclusive: 22.4 µM [inhibitor, single point].
`CC(C)(C)c1ccc(OCc2nn3c(-c4cccnc4)nnc3s2)cc1` was tested, and the Potency was “inactive”.
`COc1ccc(S(=O)(=O)c2cn(Cc3ccccc3)c3ccc(OC)cc3c2=O)cc1` was tested, and the Potency was inconclusive: 25.1 µM [inhibitor, partial curve, poor fit].
With `CN(C)c1ccc(C(CNS(=O)(=O)c2ccc(F)cc2)N2CCc3ccccc32)cc1` (stereo unspecified) the Potency was inconclusive: 39.8 µM [inhibitor, single point].
With `Cc1[nH]nc2c1C(c1c(F)cccc1F)C(C#N)=C(N)O2` (stereo unspecified) the Potency was inconclusive: 12.6 µM [inhibitor, partial curve].
`COc1cc([N+](=O)[O-])cc(/C=N/NC(=O)CSc2ccccn2)c1O` was tested, and the Potency was inconclusive: 17.8 µM [inhibitor, partial curve, poor fit].
With `Cc1cccc(N2CCN(c3c4c(nc5nncn35)CCC4)CC2)c1C` the Potency was inconclusive: 1 µM [inhibitor, partial curve, poor fit].
`Cc1ccc2nc(-c3ccc(NC(=O)c4cccc(F)c4)cc3)oc2c1` was tested, and the Potency was inconclusive: 2 µM [inhibitor, full curve, poor fit].
In the case of `c1ccc(CN2CC[C@H](c3nc4ccccc4o3)C2)nc1`, the Potency is reported as inconclusive: 44.7 µM [inhibitor, partial curve, poor fit].
In the case of `CC(Sc1n[nH]c(-c2ccccc2F)n1)c1nc(C(C)(C)C)no1` (stereo unspecified), the Potency is reported as “inactive”.
In the case of `CC(=O)Nc1ccc(NC(=O)c2ccccc2OCC2CCCO2)cc1Cl` (stereo unspecified), the Potency is reported as “inactive”.
For `Cc1cccn2cc(CN3CCN(S(=O)(=O)c4ccccc4)CC3)nc12`, the Potency was inconclusive: 22.4 µM [inhibitor, partial curve, poor fit].
`CC(=O)Nc1ccc(S(=O)(=O)N2CCC(N3CCCC3)CC2)cc1` was tested, and the Potency was inconclusive: 20 µM [inhibitor, partial curve, poor fit].
`Cc1ccc2nc(N3CCN(C(=O)CC4(CC(=O)O)CCCC4)CC3)nc(-c3ccccc3)c2c1` was tested, and the Potency was inconclusive: 35.5 µM [inhibitor, partial curve, poor fit].
`COc1ccc(OC)c(C2CC(c3ccc(NS(C)(=O)=O)cc3)=NN2C(=O)c2cccs2)c1` (stereo unspecified) was tested, and the Potency was inconclusive: 39.8 µM [inhibitor, partial curve, poor fit].
With `COc1ccc(CNC(=O)c2ccc3c(c2)N(C)C2CCCN2C3=O)c(OC)c1` (stereo unspecified) the Potency was inconclusive: 28.2 µM [inhibitor, partial curve, poor fit].
In the case of `COc1cccc(-c2cc3c(=O)n(CCNC(=O)c4ccc5cc[nH]c5c4)ccn3n2)c1`, the Potency is reported as active: 35.5 µM.
For `O=C(Nc1ccccc1)N[C@H]1C[C@H]2C(=O)NC[C@@H](CCC(=O)N3CCN(c4ccccn4)CC3)N2C1`, the Potency was active: 25.1 µM.
With `CCN1CCN(C(=O)c2ccc(OC3CCN(CCc4ccccc4)CC3)cc2)[C@@H](C)C1=O` the Potency was “inactive”.
`Cc1cc(C(=O)N2CCNCC(O)C2)c(-c2ccccc2)o1` (stereo unspecified) was tested, and the Potency was inconclusive: 12.6 µM [inhibitor, partial curve, poor fit].
In the case of `COc1ccc(CCNC(=O)c2cc3c(s2)-c2ccccc2OC3)c(OC)c1`, the Potency is reported as “inactive”.
For `O=C(c1ccoc1)N1CCN(c2nnc3ccccn23)CC1`, the Potency was active: 31.6 µM.
`CNC(=O)[C@@H]1C[C@@H](n2cc(CNC(=O)Nc3cccc(Cl)c3)nn2)CN1` was tested, and the Potency was inconclusive: 6.31 µM [inhibitor, single point].
For `CCc1[nH]c2ccc(CNC(=O)c3scc4c3OCCO4)cc2c1C`, the Potency was inconclusive: 22.4 µM [inhibitor, partial curve, poor fit].
For `COc1ccccc1/C=C/c1nc(C#N)c(NCc2ccco2)o1`, the Potency was inconclusive: 17.8 µM [inhibitor, partial curve, poor fit].
For `O=c1ccc2ccc(OS(=O)(=O)c3ccc4c(c3)CCCC4)cc2o1`, the Potency was inconclusive: 22.4 µM [inhibitor, single point].
`COc1cccc(OCC(=O)Nc2nnc3n2CCS3)c1` was tested, and the Potency was inconclusive: 2.82 µM [inhibitor, full curve, poor fit].
In the case of `CC1CN(C)CCC1NC(=O)Cc1cccc(C(F)(F)F)c1` (stereo unspecified), the Potency is reported as “inactive”.
`COCCn1c(C)cc(C(=O)N2CCCC(c3[nH]ccc3C(N)=O)C2)c1C` (stereo unspecified) was tested, and the Potency was inconclusive: 20 µM [inhibitor, partial curve].
In the case of `Oc1ccccc1CNC1(Cc2cc(-c3ccc(F)cc3)on2)COC1`, the Potency is reported as “inactive”.
In the case of `Cc1noc2c(N3CCC(c4ccccc4)CC3)cc(-c3cccnc3)nc12`, the Potency is reported as inconclusive: 35.5 µM [inhibitor, single point].
In the case of `CC(C)CC(=O)N1CCCCCNC(=O)[C@H]2C[C@H](C(=O)N3CCc4ccccc4C3)C[C@H]21`, the Potency is reported as inconclusive: 0.316 µM [inhibitor, full curve, poor fit].
`CCc1ccc(CNC(=O)CN2C(=O)CCn3nc(-c4cn(C)c5ccccc45)cc32)cc1` was tested, and the Potency was inconclusive: 1.78 µM [inhibitor, partial curve, poor fit].
`O=C(c1cc2ccccc2[nH]1)N1CCN(C(=O)c2nnn3c2COC(c2ccc(Cl)cc2)C3)CC1` (stereo unspecified) was tested, and the Potency was inconclusive: 15.8 µM [inhibitor, single point].
With `Cc1ccc(CNC(=O)Nc2ccc(F)cc2)n1C` the Potency was inconclusive: 22.4 µM [inhibitor, partial curve, poor fit].
`CCCN(CCC)CCNC(=O)c1cc(-c2ccc(Br)s2)nc2ccccc12` was tested, and the Potency was inconclusive: 17.8 µM [inhibitor, partial curve, poor fit].
In the case of `O=[S+]([O-])(c1cccnc1)c1nnn2c1nc(NCc1ccc(F)cc1)c1ccccc12`, the Potency is reported as inconclusive: 79.4 µM [inhibitor, single point].
For `COc1cccc(OCCOc2ccc(/C=C3\C(=N)N4N=C(S(C)(=O)=O)SC4=NC3=O)cc2OC)c1`, the Potency was inconclusive: 22.4 µM [inhibitor, single point].
`Brc1ccc2nc(-c3ccccc3)c(Nc3ccc4c(c3)OCO4)n2c1` was tested, and the activity change, negative = inhibition was inconclusive: -36.3% [inhibitor].
`CCC(=O)N1CCc2cc(CNC(=O)Nc3cc(Cl)ccc3C(=O)OC)ccc21` was tested, and the Potency was inconclusive: 35.5 µM [inhibitor, single point].
With `COc1ccccc1CN1CCC(CNC(=O)c2cnn(-c3ccc(C)c(C)c3)c2C2CCN(C(=O)OC(C)(C)C)CC2)CC1` the Potency was inconclusive: 15.8 µM [inhibitor, partial curve, poor fit].
In the case of `C[C@@H]1CN(C(=O)Cn2c3c(c(=O)n2Cc2ccccc2)CCN(Cc2ccccc2)C3)C[C@H](C)O1`, the Potency is reported as inconclusive: 39.8 µM [inhibitor, single point].
